{"source": "patent US20250186550A1", "about": "(HAINAN SIMCERE PHARMACEUTICAL, published 2025)", "binders": {"B1": {"name": "IL2 mutant 1-2-linker-Fc (V91R/Y31V/A73L/H79Q) (Fc fusion)", "chain": "APTSSSTKKTQLQLEHLLLDLQMILNGINNVKNPKLTRMLTFKFYMPKKATELKHLQCLEEELKPLEEVLNLLQSKNFQLRPRDLISNINRIVLELKGSETTFMCEYADETATIVEFLNRWITFAQSIISTLTGGGGSGGGGSGGGGS[human IgG1 Fc with changes skipped]", "notes": "Expressed in CHO cells; also called IL2-1-2; IL2 mutant fusion protein"}}, "key": {"[1]": {"target": "T1, human IL-2R alpha protein (Acro, ILA-H52H9) (human, UniProt P01589 22-213, limits assumed)", "T1 construct": "Bought reagent coated on the ELISA plate; also called IL-2Rα; CD25", "T1 sequence (looked up)": "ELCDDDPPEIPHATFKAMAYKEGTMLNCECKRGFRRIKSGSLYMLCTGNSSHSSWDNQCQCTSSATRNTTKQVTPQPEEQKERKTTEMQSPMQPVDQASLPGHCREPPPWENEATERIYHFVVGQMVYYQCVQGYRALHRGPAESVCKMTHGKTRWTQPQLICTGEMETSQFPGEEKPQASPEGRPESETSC", "assay": "ELISA on coated human IL-2R alpha, anti-human IgG Fc-HRP detection; formulated sample, 40° C., upright, 4 W", "experimental": "(§1) (1) Coating: A carbonate buffer (50 mM Na₂CO₃—NaHCO₃, pH 9.6) with a pH of 9.6 was selected as a coating solution; human IL-2R alpha protein (Acro, ILA-H52H9) was diluted to 0.5 μg/mL with the coating solution; and the mixture was added to an ELISA plate at 100 µL/well and coated at 2-8° C. overnight (>16 h).\n(§2) (2) Blocking: After the plate was washed, PBS containing 3% BSA was added to the plate at 300 μL/well, and the plate was blocked at 37° C. for 1 h and then washed.\n(§3) (6) After the mixture was washed, a color development solution TMB (Thermo, 34029) was added to the ELISA plate at 100 μL/well; the resulting mixture was reacted at room temperature for 5-9 min in the dark, and then 1 M sulfuric acid was added at 100 μL/well to stop the reaction; and the plate was read within 2 min using a microplate reader, at a measurement wavelength of 450 nm and a reference wavelength of 630 nm."}, "[2]": {"target": "T1, human IL-2R alpha protein (Acro, …)", "assay": "ELISA on coated human IL-2R alpha, anti-human IgG Fc-HRP detection; formulated sample, 25° C., inverted, 3 M"}, "[3]": {"target": "T1, human IL-2R alpha protein (Acro, …)", "assay": "ELISA on coated human IL-2R alpha, anti-human IgG Fc-HRP detection; formulated sample, 25° C., inverted, T0", "experimental": "as §1, §2, §3"}, "[4]": {"target": "T1, human IL-2R alpha protein (Acro, …)", "assay": "ELISA on coated human IL-2R alpha, anti-human IgG Fc-HRP detection; formulated sample, 40° C., upright, 2 W", "experimental": "as §1, §2, §3"}, "[5]": {"target": "T1, human IL-2R alpha protein (Acro, …)", "assay": "ELISA on coated human IL-2R alpha, anti-human IgG Fc-HRP detection; formulated sample, 25° C., upright, T0", "experimental": "as §1, §2, §3"}, "[6]": {"target": "T1, human IL-2R alpha protein (Acro, …)", "assay": "ELISA on coated human IL-2R alpha, anti-human IgG Fc-HRP detection; formulated sample, 40° C., inverted, T0", "experimental": "as §1, §2, §3"}, "[7]": {"target": "T1, human IL-2R alpha protein (Acro, …)", "assay": "ELISA on coated human IL-2R alpha, anti-human IgG Fc-HRP detection; formulated sample, 2~8° C., upright, T0", "experimental": "as §1, §2, §3"}, "[8]": {"target": "T1, human IL-2R alpha protein (Acro, …)", "assay": "ELISA on coated human IL-2R alpha, anti-human IgG Fc-HRP detection; formulated sample, 25° C., inverted, 4 W", "experimental": "as §1, §2, §3"}, "[9]": {"target": "T1, human IL-2R alpha protein (Acro, …)", "assay": "ELISA on coated human IL-2R alpha, anti-human IgG Fc-HRP detection; formulated sample, 40° C., inverted, 4 W"}, "[10]": {"target": "T1, human IL-2R alpha protein (Acro, …)", "assay": "ELISA on coated human IL-2R alpha, anti-human IgG Fc-HRP detection; formulated sample, 2~8° C., upright, 3 M"}, "[11]": {"target": "T1, human IL-2R alpha protein (Acro, …)", "assay": "ELISA on coated human IL-2R alpha, anti-human IgG Fc-HRP detection; formulated sample, 25° C., upright, 3 M", "experimental": "as §1, §2, §3"}, "[12]": {"target": "T1, human IL-2R alpha protein (Acro, …)", "assay": "ELISA on coated human IL-2R alpha, anti-human IgG Fc-HRP detection; formulated sample, 25° C., upright, 4 W", "experimental": "as §1, §2, §3"}, "[13]": {"target": "T1, human IL-2R alpha protein (Acro, …)", "assay": "ELISA on coated human IL-2R alpha, anti-human IgG Fc-HRP detection; formulated sample, 40° C., inverted, 2 W", "experimental": "as §1, §2, §3"}}, "data": [{"binder": "B1", "values": [{"measurement": "Activity (%) ELISA (relative binding activity = EC50 of the control/EC50 of the test sample x100)", "setting": "[1]", "result": 103, "unit": "%"}, {"measurement": "Activity (%) ELISA (relative binding activity = EC50 of the control/EC50 of the test sample x100)", "setting": "[2]", "result": 105, "unit": "%"}, {"measurement": "Activity (%) ELISA (relative binding activity = EC50 of the control/EC50 of the test sample x100)", "setting": "[3]", "result": 108, "unit": "%"}, {"measurement": "Activity (%) ELISA (relative binding activity = EC50 of the control/EC50 of the test sample x100)", "setting": "[4]", "result": 92, "unit": "%"}, {"measurement": "Activity (%) ELISA (relative binding activity = EC50 of the control/EC50 of the test sample x100)", "setting": "[5]", "result": 108, "unit": "%"}, {"measurement": "Activity (%) ELISA (relative binding activity = EC50 of the control/EC50 of the test sample x100)", "setting": "[6]", "result": 108, "unit": "%"}, {"measurement": "Activity (%) ELISA (relative binding activity = EC50 of the control/EC50 of the test sample x100)", "setting": "[7]", "result": 108, "unit": "%"}, {"measurement": "Activity (%) ELISA (relative binding activity = EC50 of the control/EC50 of the test sample x100)", "setting": "[8]", "result": 99, "unit": "%"}, {"measurement": "Activity (%) ELISA (relative binding activity = EC50 of the control/EC50 of the test sample x100)", "setting": "[9]", "result": 95, "unit": "%"}, {"measurement": "Activity (%) ELISA (relative binding activity = EC50 of the control/EC50 of the test sample x100)", "setting": "[10]", "result": 95, "unit": "%"}, {"measurement": "Activity (%) ELISA (relative binding activity = EC50 of the control/EC50 of the test sample x100)", "setting": "[11]", "result": 102, "unit": "%"}, {"measurement": "Activity (%) ELISA (relative binding activity = EC50 of the control/EC50 of the test sample x100)", "setting": "[12]", "result": 116, "unit": "%"}, {"measurement": "Activity (%) ELISA (relative binding activity = EC50 of the control/EC50 of the test sample x100)", "setting": "[13]", "result": 98, "unit": "%"}]}]}
